Measurements published in patent US9493557B2, “Chemokine binding polypeptides for treating autoimmunity and inflammation” (Biokine Therapeutics Ltd., priority 2009, dated 2016).

T1: IP-10 (Homo sapiens, UniProt P02778)
T1 construct: purchased PeproTech
T1 sequence (P02778 22-98): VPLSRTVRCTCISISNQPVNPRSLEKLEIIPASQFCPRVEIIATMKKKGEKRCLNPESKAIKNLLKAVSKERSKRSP

T2: MIG (Homo sapiens, UniProt Q07325)
T2 construct: purchased PeproTech
T2 sequence (Q07325 23-125): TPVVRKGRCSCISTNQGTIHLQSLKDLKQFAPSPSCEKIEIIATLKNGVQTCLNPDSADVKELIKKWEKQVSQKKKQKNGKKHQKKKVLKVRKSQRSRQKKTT

T3: RANTES (Homo sapiens, UniProt P13501)
T3 construct: purchased PeproTech
T3 sequence (P13501 24-91): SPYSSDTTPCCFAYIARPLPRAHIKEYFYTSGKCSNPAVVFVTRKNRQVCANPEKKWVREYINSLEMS

T4: I-TAC (Homo sapiens, UniProt O14625)
T4 construct: purchased PeproTech
T4 sequence (O14625 22-94): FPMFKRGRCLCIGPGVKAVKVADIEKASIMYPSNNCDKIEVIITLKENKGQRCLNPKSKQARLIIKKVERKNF

T5: BCA-1 (Homo sapiens, UniProt O43927)
T5 sequence (O43927 23-109): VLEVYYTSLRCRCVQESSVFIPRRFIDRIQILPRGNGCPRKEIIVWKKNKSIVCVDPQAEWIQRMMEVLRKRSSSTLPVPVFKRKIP

B1: BKT-P2-FC: BKT-P2 peptide fused via spacer to the N'-terminus of secreted non-glycosylated human IgG1 Fc (Fc N297A), with IL6 signal peptide (protein)
chain: MNSFSTSAFGPVAFSLGLLLVLPAAFPAPVPPSIPSHSIHSAKAGGGSKGF[omitted - human IgG1 Fc with changes]
modifications: BKT-P2-FC polypeptide
B2: BKT-P46-FC: BKT-P46 peptide fused via spacer to the N'-terminus of secreted non-glycosylated human IgG1 Fc (Fc N297A), with IL6 signal peptide (protein)
chain: MNSFSTSAFGPVAFSLGLLLVLPAAFPAPVPPLDYPIPQTVLHHGGGSKGF[omitted - human IgG1 Fc with changes]
modifications: BKT-P46-FC polypeptide

Assays:
arthritis = test: In vivo mouse induced arthritis model (mBSA), leukocytes in knee cavity by FACS; set-up: species or system mice; details: 2 mg/kg on day 11, 24 hours before mBSA challenge, 48 hours after administration
MOG-derived EAE = test: Experimental autoimmune encephalomyelitis (EAE) induced with MOG peptide (chronic disease); format: in vivo, C57BL/6 mice; details: FIG. 7; through day 55; 50 μg/mouse intravenously; vs control mice
IP-10 = molecular target: T1, IP-10; test: In vitro T cell adhesion to VCAM-1 induced by IP-10 under shear flow; format: cell-based; details: for Inhibition of chemokine-dependent T cell adhesion: IP-10: 10 μg/ml peptide, T cells on VCAM-1 under shear flow
Experimental: (§1) 50 ml of blood was added to 10 ml of a solution of Dextran T-500 (6% w/v) in PBS (phosphate buffer saline), and 7 ml of citrate buffer (25 grams citrate, 8 grams citric acid in 500 ml PBS). The solution was incubated for 30 minutes at 25° C. 10 ml of Ficoll 1077 was added to the bottom of the tube. The tube was then centrifuged at 2,000 rotations per minute for 30 minutes at 18° C. (with the brake mode of the centrifuge off). The interphase was collected and washed twice with 8 ml PBS with 5% FCS (fetal calf serum), followed by centrifugation at 1,400 rotations per minute for 5 minutes at 18° C. The cells were re-suspended in PBS with 5% FCS at a concentration less then 10^8 per ml. 2 ml of the cell solution were applied on a poly(methyl methacrylate) nylon wool column which was pre-soaked in PBS-5% FCS, and then incubated for 45 minutes at 25° C. Each column was washed with 8 ml PBS-5% FCS and the cells (T-cells and erythrocytes) were eluted by 50 ml of 5 mM EDTA (ethylenediaminetetraacetic acid) in PBS. A red pellet was obtained by centrifugation at 1,400 rotations per minute for 5 minutes at 4° C. (with the brake on).
In order to perform lysis of the erythrocytes, the red pellet was re-suspended in 5 ml of lysis-buffer (155 mM NH4Cl, 10 mM KHCO3, 0.1 mM EDTA, X0.1 PBS) for 4 minutes, followed by immediate addition of 50 ml of PBS with EDTA. Following centrifugation at 1,400 rotations per minute for 5 minutes at 4° C., the pellet was washed again with 50 ml PBS-EDTA and re-centrifuged under the same conditions. […] The cells were ready for use in experiments after overnight incubation at 37° C. […]
(§2) The plates were then assembled as the lower wall of a parallel wall flow chamber and mounted on the stage of an inverted microscope. […] The number of adherent cells resisting detachment by the elevated shear forces was determined after each interval by analysis of videotaped cell images, and was expressed as the percent of originally settled cells. […]

[1] = system: delayed type hypersensitivity; test: In vivo delayed type hypersensitivity mouse model (mBSA); set-up: species or system C57BL/6 mice; details: FIG. 9; for inhibition of delayed type hypersensitivity: 50 μg/mouse intravenously 24 hours before challenge
MCP-1 = molecular target: T6, MCP-1 (Homo sapiens, UniProt P13500); test: In vitro T cell adhesion to VCAM-1 induced by MCP-1 under shear flow; format: cell-based; details: for Inhibition of chemokine-dependent T cell adhesion: MCP-1: 10 μg/ml peptide, T cells on VCAM-1 under shear flow; for T cell adhesion induced by MCP-1 (result in words): T cells on VCAM-1
T6 construct: purchased PeproTech
T6 sequence (P13500 24-99): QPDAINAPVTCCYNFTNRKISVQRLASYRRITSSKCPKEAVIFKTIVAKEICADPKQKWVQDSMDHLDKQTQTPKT
Experimental: as §1
(§3) In order to perform lysis of the erythrocytes, the red pellet was re-suspended in 5 ml of lysis-buffer (155 mM NH4Cl, 10 mM KHCO3, 0.1 mM EDTA, X0.1 PBS) for 4 minutes, followed by immediate addition of 50 ml of PBS with EDTA. Following centrifugation at 1,400 rotations per minute for 5 minutes at 4° C., the pellet was washed again with 50 ml PBS-EDTA and re-centrifuged under the same conditions. A white pellet was obtained and re-suspended in RPMI medium with 10% FCS, L-glutamine, sodium pyruvate and antibiotics at a concentration of 3×10^6 cells per ml. The cells were incubated for 2 hours at 37° C., followed by collection of the non-adherent cells. The cells were ready for use in experiments after overnight incubation at 37° C.
(§4) 10 μg/ml of human VCAM-1 and 2 μg/ml of a chemokine (intact MIG, IP-10, I-TAC, MCP-1, RANTES, SDF-1 (stromal cell-derived factor-1), BCA-1 (B lymphocyte chemoattractant-1), IL-8 (interleukin-8) or eotaxin, or heat-inactivated SDF-1 as a control) were dissolved in PBS buffered with 20 mM bicarbonate (pH 8.5), and incubated in polystyrene plates overnight at 4° C. Alternatively, 10 μg/ml of the chemokine was used, and the plates were incubated for 30 minutes at room temperature. […]
as §2

MIG = molecular target: T2, MIG; test: In vitro T cell adhesion to VCAM-1 induced by MIG under shear flow; format: cell-based; details: for Inhibition of chemokine-dependent T cell adhesion: MIG: 10 μg/ml peptide, T cells on VCAM-1 under shear flow; for T cell adhesion induced by MIG (result in words): T cells on VCAM-1
Experimental: as §1, §3, §4, §2

RANTES = molecular target: T3, RANTES; test: In vitro T cell adhesion to VCAM-1 induced by RANTES under shear flow; format: cell-based; details: for Inhibition of chemokine-dependent T cell adhesion: RANTES: 10 μg/ml peptide, T cells on VCAM-1 under shear flow; for T cell adhesion induced by RANTES (result in words): T cells on VCAM-1
Experimental: as §1, §3, §4, §2

I-TAC = molecular target: T4, I-TAC; test: In vitro T cell adhesion to VCAM-1 induced by I-TAC under shear flow; format: cell-based; details: for Inhibition of chemokine-dependent T cell adhesion: I-TAC: 10 μg/ml peptide, T cells on VCAM-1 under shear flow; for T cell adhesion induced by I-TAC (result in words): T cells on VCAM-1
Experimental: as §1, §3, §4, §2

PLP-derived EAE = test: Experimental autoimmune encephalomyelitis (EAE) induced with PLP peptide (acute disease); format: in vivo, SJL mice; details: for average clinical score of PLP-derived EAE / accumulating clinical score of PLP-derived EAE: 50 μg/mouse intravenously, vs control mice; for mice with EAE clinical scores of 0: day 27 of the experiment, 8 of 10 control mice had scores of at least 2
Eotaxin = molecular target: T7, Eotaxin (Homo sapiens, UniProt P51671); test: In vitro T cell adhesion to VCAM-1 induced by eotaxin under shear flow; format: cell-based; details: for Inhibition of chemokine-dependent T cell adhesion: Eotaxin: 10 μg/ml peptide, T cells on VCAM-1 under shear flow; for T cell adhesion induced by eotaxin (result in words): T cells on VCAM-1
T7 construct: purchased PeproTech
T7 sequence (P51671 24-97): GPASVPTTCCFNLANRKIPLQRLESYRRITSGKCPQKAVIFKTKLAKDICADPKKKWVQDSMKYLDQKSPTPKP
Experimental: as §1, §3, §4, §2

SDF-1 = molecular target: T8, SDF-1 (Homo sapiens, UniProt P48061); test: In vitro T cell adhesion to VCAM-1 induced by SDF-1 under shear flow; format: cell-based; details: 10 μg/ml peptide; T cells on VCAM-1 under shear flow
T8 construct: purchased PeproTech
T8 sequence (P48061 22-89 limits assumed): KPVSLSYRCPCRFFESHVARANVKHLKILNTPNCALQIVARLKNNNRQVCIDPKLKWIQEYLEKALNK
Experimental: (§5) 50 ml of blood was added to 10 ml of a solution of Dextran T-500 (6% w/v) in PBS (phosphate buffer saline), and 7 ml of citrate buffer (25 grams citrate, 8 grams citric acid in 500 ml PBS). The solution was incubated for 30 minutes at 25° C. 10 ml of Ficoll 1077 was added to the bottom of the tube. The tube was then centrifuged at 2,000 rotations per minute for 30 minutes at 18° C. (with the brake mode of the centrifuge off). The interphase was collected and washed twice with 8 ml PBS with 5% FCS (fetal calf serum), followed by centrifugation at 1,400 rotations per minute for 5 minutes at 18° C. The cells were re-suspended in PBS with 5% FCS at a concentration less then 10^8 per ml. […]
(§6) In order to perform lysis of the erythrocytes, the red pellet was re-suspended in 5 ml of lysis-buffer (155 mM NH4Cl, 10 mM KHCO3, 0.1 mM EDTA, X0.1 PBS) for 4 minutes, followed by immediate addition of 50 ml of PBS with EDTA. […] The cells were ready for use in experiments after overnight incubation at 37° C. […]
as §2

BCA-1 = molecular target: T5, BCA-1; test: In vitro T cell adhesion to VCAM-1 induced by BCA-1 under shear flow; format: cell-based; details: 10 μg/ml peptide; T cells on VCAM-1 under shear flow
Experimental: as §5, §6, §2

Molecule | average clinical score of MOG-derived EAE (MOG-derived EAE) | Inhibition of chemokine-dependent T cell adhesion: IP-10 (IP-10) | inhibition of delayed type hypersensitivity [1] | Inhibition of chemokine-dependent T cell adhesion: MCP-1 (MCP-1) | T cell adhesion induced by MCP-1 (result in words) (MCP-1) | Inhibition of chemokine-dependent T cell adhesion: MIG (MIG) | T cell adhesion induced by MIG (result in words) (MIG) | Inhibition of chemokine-dependent T cell adhesion: RANTES (RANTES) | T cell adhesion induced by RANTES (result in words) (RANTES) | Inhibition of chemokine-dependent T cell adhesion: I-TAC (I-TAC) | T cell adhesion induced by I-TAC (result in words) (I-TAC) | average clinical score of PLP-derived EAE (PLP-derived EAE; FIG. 6A, through day 33) | accumulating clinical score of PLP-derived EAE (PLP-derived EAE; FIG. 6B, through day 33) | mice with EAE clinical scores of 0 (PLP-derived EAE) | Inhibition of chemokine-dependent T cell adhesion: Eotaxin (Eotaxin) | T cell adhesion induced by eotaxin (result in words) (Eotaxin) | other results
B1 | decreased | ++ (++ = 100% inhibition) | inhibited | ++ (++ = 100% inhibition) | inhibited | ++ (++ = 100% inhibition) | inhibited | ++ (++ = 100% inhibition) | inhibited | ++ (++ = 100% inhibition) | inhibited | decreased | decreased | 9 of 10 | ++ (++ = 100% inhibition) | inhibited | number of neutrophils in the arthritic knee cavity (arthritis; FIG. 8A): considerably reduced; number of monocytes in the arthritic knee cavity (arthritis; FIG. 8B): considerably reduced; T cell adhesion induced by IP-10 (result in words) (IP-10; T cells on VCAM-1): inhibited; relative potency in inhibiting delayed type hypersensitivity ([1]; comparison of the two polypeptides): more potent than BKT-P46-FC
B2 | decreased | − (− = no inhibition) | inhibited | ++ (++ = 100% inhibition) | inhibited | ++ (++ = 100% inhibition) | inhibited | ++ (++ = 100% inhibition) | inhibited | ++ (++ = 100% inhibition) | inhibited | decreased | decreased | 8 of 10 | ++ (++ = 100% inhibition) | inhibited | average clinical score of PLP-derived EAE (PLP-derived EAE; FIG. 5A, through day 55): considerably decreased; accumulating clinical score of PLP-derived EAE (PLP-derived EAE; FIG. 5B, through day 55): considerably decreased; Inhibition of chemokine-dependent T cell adhesion: SDF-1 (SDF-1): − (− = no inhibition); Inhibition of chemokine-dependent T cell adhesion: BCA-1 (BCA-1): − (− = no inhibition)
